Results on three molecules are retold here after PMC10547799.

For test [1], the target named is PLK1-Flag (human) (UniProt P53350). The experiment in a line: co-IP; DU145 transfected with PLK1-Flag and UHRF1-His wild type or mutants (in Fig. 4J synchronised at S phase, lysate not treated with PP2A); IP anti-Flag, blot anti-His.
Test [2] shares this target. The experiment in a line: co-IP; HEK293T co-transfected with UHRF1-His and Flag-tagged PLK1 (full length or truncated); IP with anti-Flag or anti-His; RIPA extracts, antibody 4 °C 12 h, protein A/G magnetic beads; western blot. In general terms: In western blotting, separated proteins are transferred to a membrane and probed.
Test [3] has the same target. Briefly: condition: only cell lysate treated with PP2A phosphatase before immunoprecipitation; co-IP; DU145 transfected with PLK1-Flag and UHRF1-His wild type or S682D, synchronised at S phase; cell lysate treated with PP2A phosphatase before IP anti-Flag, blot anti-His.
For test [4] the target is unchanged. Briefly: co-IP; DU145 transfected with PLK1-Flag and UHRF1-His wild type or S682D, synchronised at S phase; cell lysate treated with PP2A phosphatase before IP anti-Flag, blot anti-His.
Test [5] has as its target PLK1 (endogenous) (human (endogenous in DU145 and BT549)) (UniProt P53350). Briefly: co-IP; endogenous proteins, DU145 and BT549 lysates; IP with anti-PLK1 or anti-UHRF1; also DU145 synchronised at G1/S by double thymidine, released, or arrested in M phase with nocodazole (IP anti-UHRF1).

Substitutions are numbered along the chain they refer to. Names may count otherwise. These are yes or no findings as the source states them, for the method shown. Binding seen in cells or lysates may run through a third protein. Some binding calls cover weakened binding; strength is not graded here. For part of these data: Sequences can lack the tags named with a protein.

B1: UHRF1-His (protein, UniProt Q96T88 1-793)
chain: MWIQVRTMDGRQTHTVDSLSRLTKVEELRRKIQELFHVEPGLQRLFYRGKQMEDGHTLFDYEVRLNDTIQLLVRQSLVLPHSTKERDSELSDTDSGCCLGQSESDKSSTHGEAAAETDSRPADEDMWDETELGLYKVNEYVDARDTNMGAWFEAQVVRVTRKAPSRDEPCSSTSRPALEEDVIYHVKYDDYPENGVVQMNSRDVRARARTIIKWQDLEVGQVVMLNYNPDNPKERGFWYDAEISRKRETRTARELYANVVLGDDSLNDCRIIFVDEVFKIERPGEGSPMVDNPMRRKSGPSCKHCKDDVNRLCRVCACHLCGGRQDPDKQLMCDECDMAFHIYCLDPPLSSVPSEDEWYCPECRNDASEVVLAGERLRESKKKAKMASATSSSQRDWGKGMACVGRTKECTIVPSNHYGPIPGIPVGTMWRFRVQVSESGVHRPHVAGIHGRSNDGAYSLVLAGGYEDDVDHGNFFTYTGSGGRDLSGNKRTAEQSCDQKLTNTNRALALNCFAPINDQEGAEAKDWRSGKPVRVVRNVKGGKNSKYAPAEGNRYDGIYKVVKYWPEKGKSGFLVWRYLLRRDDDEPGPWTKEGKDRIKKLGLTMQYPEGYLEALANREREKENSKREEEEQQEGGFASPRTGKGKWKRKSAGGGPSRAGSPRRTSKKTKVEPYSLTAQQSSLIREDKSNAKLWNEVLASLKDRPASGSPFQLFLSKVEETFQCICCQELVFRPITTVCQHNVCKDCLDRSFRAQVFSCPACRYDLGRSYAMQVNQPLQTVLNQLFPGYGNGR
For B1, the binding entry is “binds” with PLK1-Flag (human) [1], “binds” in the test with PLK1-Flag (human) [2] and “no binding” with PLK1-Flag (human) [3].

B2: UHRF1(S682D)-His (protein, UniProt Q96T88 1-793)
chain: B1 chain with S682D
Turning to B2, the binding entry with PLK1-Flag (human) [1] and in the test with PLK1-Flag (human) [4] was “binds” throughout.

B3: UHRF1 (endogenous) (protein, UniProt Q96T88 1-793)
chain: B1 chain
Take B3: the binding entry in test [5] is recorded as “binds”.
